{"source": "paper PMC9911399", "about": "“Two distinct binding modes provide the RNA-binding protein RbFox with extraordinary sequence specificity”", "binders": {"B1": {"name": "GGGAGGA (DNA:RNA)", "RNA": "GGGAGACCGGAAUUCAGAUUGUCCGGGAGGAUUAAAUCCCGUCGUAGCCACCA", "DNA 1": "CAATCTGAATTCCGGTCTCCC", "DNA 2": "TGGTGGCTACGACGGGATT"}, "B2": {"name": "GUUGUAC (DNA:RNA)", "RNA": "B1 RNA with G26U, G27U, A28G, G29U, G30A, A31C", "DNA 1": "CAATCTGAATTCCGGTCTCCC", "DNA 2": "TGGTGGCTACGACGGGATT"}, "B3": {"name": "GCAAUCA (DNA:RNA)", "RNA": "B1 RNA with G26C, G27A, G29U, G30C", "DNA 1": "CAATCTGAATTCCGGTCTCCC", "DNA 2": "TGGTGGCTACGACGGGATT"}, "B4": {"name": "GGCAGAU (DNA:RNA)", "RNA": "B1 RNA with G27C, G30A, A31U", "DNA 1": "CAATCTGAATTCCGGTCTCCC", "DNA 2": "TGGTGGCTACGACGGGATT"}, "B5": {"name": "GGAGCGA (DNA:RNA)", "RNA": "B1 RNA with G27A, A28G, G29C", "DNA 1": "CAATCTGAATTCCGGTCTCCC", "DNA 2": "TGGTGGCTACGACGGGATT"}, "B6": {"name": "UGGACGG (DNA:RNA)", "RNA": "B1 RNA with G25U, G29C, A31G", "DNA 1": "CAATCTGAATTCCGGTCTCCC", "DNA 2": "TGGTGGCTACGACGGGATT"}, "B7": {"name": "GGCGUCC (DNA:RNA)", "RNA": "B1 RNA with G27C, A28G, G29U, G30C, A31C", "DNA 1": "CAATCTGAATTCCGGTCTCCC", "DNA 2": "TGGTGGCTACGACGGGATT"}, "B8": {"name": "CGCGUUC (DNA:RNA)", "RNA": "B1 RNA with G25C, G27C, A28G, G29U, G30U, A31C", "DNA 1": "CAATCTGAATTCCGGTCTCCC", "DNA 2": "TGGTGGCTACGACGGGATT"}, "B9": {"name": "UACUUGG (DNA:RNA)", "RNA": "B1 RNA with G25U, G26A, G27C, A28U, G29U, A31G", "DNA 1": "CAATCTGAATTCCGGTCTCCC", "DNA 2": "TGGTGGCTACGACGGGATT"}, "B10": {"name": "CAAUUUC (DNA:RNA)", "RNA": "GGGAGACCGGAAUUCAGAUUGUCCCAAUUUCUUAAAUCCCGUCGUAGCCACCA", "DNA 1": "CAATCTGAATTCCGGTCTCCC", "DNA 2": "TGGTGGCTACGACGGGATT"}, "B11": {"name": "AACCUCU (DNA:RNA)", "RNA": "B10 RNA with C25A, A27C, U28C, U30C, C31U", "DNA 1": "CAATCTGAATTCCGGTCTCCC", "DNA 2": "TGGTGGCTACGACGGGATT"}, "B12": {"name": "ACUAAGG (DNA:RNA)", "RNA": "B1 RNA with G25A, G26C, G27U, G29A, A31G", "DNA 1": "CAATCTGAATTCCGGTCTCCC", "DNA 2": "TGGTGGCTACGACGGGATT"}, "B13": {"name": "GAUGCGG (DNA:RNA)", "RNA": "B1 RNA with G26A, G27U, A28G, G29C, A31G", "DNA 1": "CAATCTGAATTCCGGTCTCCC", "DNA 2": "TGGTGGCTACGACGGGATT"}, "B14": {"name": "AGAGACG (DNA:RNA)", "RNA": "B10 RNA with C25A, A26G, U28G, U29A, U30C, C31G", "DNA 1": "CAATCTGAATTCCGGTCTCCC", "DNA 2": "TGGTGGCTACGACGGGATT"}, "B15": {"name": "CGAGGUA (DNA:RNA)", "RNA": "B10 RNA with A26G, U28G, U29G, C31A", "DNA 1": "CAATCTGAATTCCGGTCTCCC", "DNA 2": "TGGTGGCTACGACGGGATT"}, "B16": {"name": "CGUAGCC (DNA:RNA)", "RNA": "B1 RNA with G25C, G27U, G30C, A31C", "DNA 1": "CAATCTGAATTCCGGTCTCCC", "DNA 2": "TGGTGGCTACGACGGGATT"}, "B17": {"name": "GGAACGG (DNA:RNA)", "RNA": "B1 RNA with G27A, G29C, A31G", "DNA 1": "CAATCTGAATTCCGGTCTCCC", "DNA 2": "TGGTGGCTACGACGGGATT"}, "B18": {"name": "GCAUGGU (DNA:RNA)", "RNA": "B1 RNA with G26C, G27A, A28U, A31U", "DNA 1": "CAATCTGAATTCCGGTCTCCC", "DNA 2": "TGGTGGCTACGACGGGATT"}, "B19": {"name": "AAUGCCA (DNA:RNA)", "RNA": "B10 RNA with C25A, A27U, U28G, U29C, U30C, C31A", "DNA 1": "CAATCTGAATTCCGGTCTCCC", "DNA 2": "TGGTGGCTACGACGGGATT"}, "B20": {"name": "GCCCACA (DNA:RNA)", "RNA": "B1 RNA with G26C, G27C, A28C, G29A, G30C", "DNA 1": "CAATCTGAATTCCGGTCTCCC", "DNA 2": "TGGTGGCTACGACGGGATT"}, "B21": {"name": "GUGUCAG (DNA:RNA)", "RNA": "B1 RNA with G26U, A28U, G29C, G30A, A31G", "DNA 1": "CAATCTGAATTCCGGTCTCCC", "DNA 2": "TGGTGGCTACGACGGGATT"}, "B22": {"name": "AAUUUUA (DNA:RNA)", "RNA": "B10 RNA with C25A, A27U, C31A", "DNA 1": "CAATCTGAATTCCGGTCTCCC", "DNA 2": "TGGTGGCTACGACGGGATT"}, "B23": {"name": "CAAACAU (DNA:RNA)", "RNA": "B10 RNA with U28A, U29C, U30A, C31U", "DNA 1": "CAATCTGAATTCCGGTCTCCC", "DNA 2": "TGGTGGCTACGACGGGATT"}, "B24": {"name": "CCUUCUG (DNA:RNA)", "RNA": "B10 RNA with A26C, A27U, U29C, C31G", "DNA 1": "CAATCTGAATTCCGGTCTCCC", "DNA 2": "TGGTGGCTACGACGGGATT"}, "B25": {"name": "ACUUCUU (DNA:RNA)", "RNA": "B10 RNA with C25A, A26C, A27U, U29C, C31U", "DNA 1": "CAATCTGAATTCCGGTCTCCC", "DNA 2": "TGGTGGCTACGACGGGATT"}, "B26": {"name": "AUUGUUC (DNA:RNA)", "RNA": "B10 RNA with C25A, A26U, A27U, U28G", "DNA 1": "CAATCTGAATTCCGGTCTCCC", "DNA 2": "TGGTGGCTACGACGGGATT"}, "B27": {"name": "GUUCGUU (DNA:RNA)", "RNA": "B1 RNA with G26U, G27U, A28C, G30U, A31U", "DNA 1": "CAATCTGAATTCCGGTCTCCC", "DNA 2": "TGGTGGCTACGACGGGATT"}, "B28": {"name": "GUUGAGU (DNA:RNA)", "RNA": "B1 RNA with G26U, G27U, A28G, G29A, A31U", "DNA 1": "CAATCTGAATTCCGGTCTCCC", "DNA 2": "TGGTGGCTACGACGGGATT"}, "B29": {"name": "AAGGGGU (DNA:RNA)", "RNA": "B1 RNA with G25A, G26A, A28G, A31U", "DNA 1": "CAATCTGAATTCCGGTCTCCC", "DNA 2": "TGGTGGCTACGACGGGATT"}, "B30": {"name": "GAAUAAC (DNA:RNA)", "RNA": "B10 RNA with C25G, U29A, U30A", "DNA 1": "CAATCTGAATTCCGGTCTCCC", "DNA 2": "TGGTGGCTACGACGGGATT"}, "B31": {"name": "AGUCGGC (DNA:RNA)", "RNA": "B1 RNA with G25A, G27U, A28C, A31C", "DNA 1": "CAATCTGAATTCCGGTCTCCC", "DNA 2": "TGGTGGCTACGACGGGATT"}}, "note": "Numbering of substitutions follows the chain as printed; changes in the protein carry UniProt numbers. This is one part of the list."}
{"molecular_target": "T1, RBFOX1 RRM (Homo sapiens, UniProt Q9NWB1 109-208)", "T1 sequence": "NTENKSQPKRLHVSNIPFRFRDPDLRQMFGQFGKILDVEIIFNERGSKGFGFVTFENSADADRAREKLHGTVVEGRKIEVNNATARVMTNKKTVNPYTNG", "experiment": "EMSA; HiTS-Eq, 1 nM pool, 10 min; buffer printed only for the single-RNA assays: 10 mM Tris pH 7.5, 150 mM NaCl, 3.4 mM EDTA, 0.001% NP-40, 30 C", "details": "tags: His6 N-terminal (pET28a); label: 5' 32P", "procedure,_shortened": "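Purified wild-type or mutant RbFox RRM at increasing concentrations was equilibrated with 1 nM of 5′-radiolabelled RNA carrying 7 randomized nucleotides for 10 min in 50 µL. Unbound RNA was separated by 8% native PAGE and sequenced. Relative association constants came from read-count changes of each RNA species compared with the control reaction, normalised to the cognate motif.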"}
{"binder": "B1", "binding signal": "0.0101 KA relative to UGCAUGU"}
{"binder": "B2", "binding signal": "0.018 KA relative to UGCAUGU"}
{"binder": "B3", "binding signal": "0.00342 KA relative to UGCAUGU"}
{"binder": "B4", "binding signal": "0.00732 KA relative to UGCAUGU"}
{"binder": "B5", "binding signal": "0.0139 KA relative to UGCAUGU"}
{"binder": "B6", "binding signal": "0.0246 KA relative to UGCAUGU"}
{"binder": "B7", "binding signal": "0.0185 KA relative to UGCAUGU"}
{"binder": "B8", "binding signal": "0.0164 KA relative to UGCAUGU"}
{"binder": "B9", "binding signal": "0.0131 KA relative to UGCAUGU"}
{"binder": "B10", "binding signal": "0.00118 KA relative to UGCAUGU"}
{"binder": "B11", "binding signal": "0.00119 KA relative to UGCAUGU"}
{"binder": "B12", "binding signal": "0.00769 KA relative to UGCAUGU"}
{"binder": "B13", "binding signal": "0.0137 KA relative to UGCAUGU"}
{"binder": "B14", "binding signal": "0.00818 KA relative to UGCAUGU"}
{"binder": "B15", "binding signal": "0.00788 KA relative to UGCAUGU"}
{"binder": "B16", "binding signal": "0.00773 KA relative to UGCAUGU"}
{"binder": "B17", "binding signal": "0.0213 KA relative to UGCAUGU"}
{"binder": "B18", "binding signal": "0.558 KA relative to UGCAUGU"}
{"binder": "B19", "binding signal": "0.00821 KA relative to UGCAUGU"}
{"binder": "B20", "binding signal": "0.00319 KA relative to UGCAUGU"}
{"binder": "B21", "binding signal": "0.0123 KA relative to UGCAUGU"}
{"binder": "B22", "binding signal": "0.00343 KA relative to UGCAUGU"}
{"binder": "B23", "binding signal": "0.000358 KA relative to UGCAUGU"}
{"binder": "B24", "binding signal": "0.0115 KA relative to UGCAUGU"}
{"binder": "B25", "binding signal": "0.00593 KA relative to UGCAUGU"}
{"binder": "B26", "binding signal": "0.0108 KA relative to UGCAUGU"}
{"binder": "B27", "binding signal": "0.0192 KA relative to UGCAUGU"}
{"binder": "B28", "binding signal": "0.0187 KA relative to UGCAUGU"}
{"binder": "B29", "binding signal": "0.0118 KA relative to UGCAUGU"}
{"binder": "B30", "binding signal": "0.00336 KA relative to UGCAUGU"}
{"binder": "B31", "binding signal": "0.0059 KA relative to UGCAUGU"}
